Measurements published in the RNAGym collection of RNA variant scans (doi:10.7554/elife.90254).
Read counts are not given, so values of variants with three or more changes are uncertain.

B1: LINE1-mini (parent)
chain: GGCAGAGCUCAACACAGCGUGGCAAAGUGGCUGUGGCUAGACUGCC

Variants of: B1
Test: self-cleavage, relative activity (ratio to wild type); higher = more cleavage; in vitro, sequencing; the parent is a self-cleaving ribozyme

Variant | self-cleavage
G17A G19A G36A | 0.08
A16U A24C G35C C42G | 0.01
A16U C18G U20G | 0.1
G17A A24U G40U C42U | 0
A16U C23A G30C U32A U34G | 0.04
A16U G17A G19U G33U | 0.01
A16U C31U G33C | 0.02
A16U G29A U43A | 0.03
G17A G22C C31A G40A | 0.01
A16U U20G C31A U32C C37A | 0.02
A16U U32G G44C | 0.09
G17A U20C A26C G29U U38C A39C | 0.05
G17A G21A C23G G36C | 0.04
A16G U28C G44U | 0.26
A16U U28G C46G | 0.08
A16U U20C G35U G40U | 0.05
A16G G30U C42A | 0.05
A16U C42G C45A | 0.02
A16U A26U C45A | 0
G17A C23A A25C U38G C46U | 0.01
G17A G27U G29U U34A | 0.02

Variant | self-cleavage
G17A U38C A39U | 0.04
G17A A26U G35A U43A | 0.05
A16U G21U G44A | 0.01
G17A C31G A41U | 0.03
G17A G22U U43C | 0.02
G17A G21U C45G | 0.05
G17C A24U U32A G35U C37U | 0.04
A16G G33U U34G G44C | 0.01
A16G U20C G21U G40C C46U | 0.02
A16U U43G G44U | 0.02
G17A G22A G40U | 0.01
G17A C31G C37G | 0.01
G17C A25G G29C G40C | 0.03
G17A G21A A24G G33A | 0.13
A16U U20A A39U | 0.02
A16U A26C G27U U43C | 0.03
A16U G17U C42A | 0.21
G17A C31U G44A | 0.02
A16G U38A C42U C45G C46A | 0.06
G17A G21C U38A | 0.2
G17C A24C U32G U43A | 0.01

Variant | self-cleavage
A16U G21A G44A | 0.04
A16U G35C U38G | 0.04
G17C A24U A26C G33A A41C | 0.06
G17A G21C U34G | 0.01
G17A G27A A41U C42U | 0.05
G17A G21C C23A G40C U43A C46G | 0.01
A16U A24U C45G | 0.11
A16U G22A A24G C31G U34G | 0.01
A16U C23A G35U A39C | 0.01
G17A G29C G40U | 0.14
G17A C23G G29A G40C | 0.04
A16U A25C G44A | 0.01
G17A A26C C31A A39G C46G | 0.04
G17A U34C C45A | 0.03
G17A G35C C42U G44A | 0.02
G17A C18A C31A | 0.06
A16U U32G G33U U34C | 0.04
A16U U32G A39C | 0.18
A16U A24C G33A C37A | 0.05
A16U G30A G35U | 0.04
A16U U34G G40C | 0.03

Variant | self-cleavage
A16U C23A A24C A41G | 0.01
G17A U20G G33C C37U | 0.01
A16U U34C C46A | 0.08
G17A U38G C42U | 0
G17A G22C C31U | 0.14
G17A A25G A41U | 0.05
A16U C18G G30A C45G | 0.01
A16U G21A U32C C46G | 0.11
G17A C37U C45A | 0.02
G17A G21U U43A | 0.09
G17A C18G G33A | 0.04
A16U A26G G40U | 0.03
A16G G30U U32C C45U | 0.59
A16U G17U A25U | 0.08
A16U G22U A25U A41U U43G G44U C46U | 0.11
A16U G21C A24G | 0.04
A16U G27C C46U | 0.82
G17A U20C C23G C42A | 0.02
G17A G29U G30U U34C C45U | 0.02
A16U G21U G33U | 0.02
